The list shows a part of the results.

The assay relates to T1, C. trachomatis L2/434/Bu expressing GFP (CTL2-GFP).
T1 construct: L2/434/Bu GFP intracellular growth in HeLa cells
Set-up: species or system HeLa; C. trachomatis total inclusion area by high-content imaging, normalised to DMSO. Particulars: total inclusion area; 28.5 h, 10 µM; inhibitor. The procedure, abridged:
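High-content images of fixed, Hoechst-stained infected cultures supply inclusion area and count (growth) plus nuclei number (viability), complementing bulk GFP/resorufin fluorescence. MIC determination is unchanged from the primary assay.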
As to `CCc1cn(CC(C(=O)OC)N(C)C)c(=O)[nH]c1=O` (centres unmarked) [CBK289706], the “% of control remaining” value is on record as 95.9913.

For `COc1ccc(Cl)cc1NC(=O)Cn1nc(-c2ccccc2)ccc1=O` [CBK270124], the “% of control remaining” value is on record as 104.178.

As to `O=C(NC(=O)C1CCN(CCc2ccc3c(c2)CCO3)CC1)Nc1ccccc1Cl` [CBK035147], the “% of control remaining” value came to 104.075.

With `FC(F)(F)c1ccccc1NC(=S)Nc1ncn(Cc2ccc(Cl)c(Cl)c2)n1` [CBK267130], the “% of control remaining” value is reported as 130.281. For `CCC(Oc1ccccc1)C(=O)Nc1cc(C)on1` (centres unmarked) [CBK288152] the value was 113.133; for `CCN(CC)C(=O)C1CCCN(C(=O)NCCc2ccc(OC)c(OC)c2)C1` (centres unmarked) [CBK156134], 100.065.

In the case of `NC(=O)c1ccc(C(=O)OCc2ccc(-c3ccccc3)cc2)cc1` [CBK297736], the “% of control remaining” value came out at 84.3405. The value for `CC(=O)c1cc(C(=O)NCc2ccc(C)cc2)n(C)c1` [CBK296750] was 74.2716; that for `O=C1NC2(CCc3ccccc31)CCN(Cc1cccnc1)C2` (centres unmarked) [CBK284620] was 101.885; that for `Cn1cnc2ccc(NC(=O)CC3CCN(C(=O)CC4CCCCC4)CC3)cc21` [CBK285961] was 112.682. The value for `COC(=O)C(C)(C)NC(=O)c1ccn(-c2cc(C)ccc2OC)n1` [CBK305989] was 22.3105; that for `c1cncc(COc2cncc(OC3CCN(CCN4CCOCC4)C3)n2)c1` (centres unmarked) [CBK084463] was 105.167. The value for `Fc1ccc2c(c1)[C@@H](Oc1cncc(NC3CCCNC3)n1)CCO2` (some centres unmarked) [CBK172256G] was 91.843; that for `CN1CC[C@H](c2ccccc2)[C@@H]2[C@H]1CCCCN2C(=O)c1ccc(=O)oc1` [CBK285527] was 118.792; that for `CCN1CCCC1CNC(=O)c1ccc(-c2ccco2)nc1N1CCN(C(=O)c2ccco2)CC1` (centres unmarked) [CBK076206] was 100.828. Turning to `N#Cc1ccc(CN2CCCN(S(=O)(=O)c3ccc(C(F)(F)F)cc3Cl)CC2)cc1` [CBK062939], the “% of control remaining” value was 66.4672. For `NC(=O)NC(CC(=O)N1CCc2sccc2C1)c1cccc(Br)c1` (centres unmarked) [CBK305813] the value was 60.396. The value for `CCOc1ccc(S(=O)(=O)N(C)c2ccc(OCC(=O)O)cc2)cc1` [CBK296119] was 111.891; that for `Cc1cc(Sc2nc[nH]n2)c2c(Cl)ccc(Cl)c2n1` [CBK025959] was 43.811. With `CCOC(=O)c1c(NC(=O)CSc2nncn2C)sc(C)c1C` [CBK267970], the “% of control remaining” value worked out at 107.222. For `O=C(Nc1ccc(C2(c3ccc(NC(=O)c4cccc5ccccc45)cc3)c3ccccc3-c3ccccc32)cc1)c1cccc2ccccc12` [CBK261163] the value was 84.5068; for `Cc1cc(OCC(=O)Nc2ccccc2N2CCN(S(C)(=O)=O)CC2)ccc1Cl` [CBK269410], 71.2275. The value for `OC(CN1CCC(O)(c2ccc(F)cc2)CC1)c1ccc(-c2ccccc2)cc1` (centres unmarked) [CBK286328] was 67.3196; that for `CCCCn1nc(C(=O)N2CCCCC2c2ncc(-c3cccc(F)c3)[nH]2)ccc1=O` (centres unmarked) [CBK291149] was 97.1609; that for `COc1cccc(C(=O)N2CCN(C(=O)Nc3ccccc3Br)CC2)c1` [CBK154783] was 99.6297.

For the compound `CN(C)CCNC(=O)c1cncc(-c2ccc(C(=O)N3CCOCC3)cc2)c1` [CBK158619], the “% of control remaining” value is 85.0528. Regarding `CCc1ccc(CNC(=O)Cn2nnc(-c3ccc(CN4CCC(C)CC4)cn3)n2)cc1` [CBK153928C], the “% of control remaining” value was found to be 71.1226. For the compound `O=C(NCCS(=O)(=O)c1ccccc1)c1cnc(-c2ccc(Cl)cc2)c(-c2ccncc2)c1` [CBK037587], the “% of control remaining” value amounted to 78.1681.

Regarding `O=C1NC2=C(C(=O)N(CC3CCCO3)C2)C(c2cccc(F)c2)N1` (centres unmarked) [CBK282364], the “% of control remaining” value is recorded as 69.8591. For `COc1ccc(S(=O)(=O)n2ccc3cc(N4CCN(C)CC4)ccc32)cc1OC` [CBK000286C] the value was 75.8258; for `COCCNC(=O)C(Cc1ccc(-c2ccc(S(C)(=O)=O)cc2)cc1)C1CCN(C(=O)OC(C)(C)C)CC1` (centres unmarked) [CBK173129], 91.4453; for `COc1cc(C(C)=O)ccc1OC(=O)CN1C(=O)c2ccccc2C1=O` [CBK262392], 108.044. The value for `OCCn1c(-c2ccc(Br)cc2)cn2c3ccccc3nc12` [CBK262167] was 97.4219; that for `CCn1c(CN2CCN(Cc3ccc4c(c3)OCO4)CC2)n[nH]c1=S` [CBK013828] was 102.737; that for `CCn1nc(C)c(CN(C)C(=O)C2CC=CCC2C(=O)O)c1C` (centres unmarked) [CBK286884] was 68.6139. The value for `Cn1c(=O)c2c(ncn2CC(=O)Nc2ccccc2C#N)n(C)c1=O` [CBK133465] was 87.8474. On to `CCCCSc1nc(N)cc(N2CCC3(CCNC(=O)CC3)CC2)n1` [CBK307001], for which the “% of control remaining” value is reported as 46.6943. Regarding `Cc1c(Br)c(C(F)(F)F)nn1CC(=O)Nc1ccc(Oc2cc([N+](=O)[O-])cc([N+](=O)[O-])c2)cc1` [CBK262558], the “% of control remaining” value came out at 86.3117. The value for `COC(=O)[C@@H](C)NC(=O)[C@H]1CN(C(=O)c2cccnc2)CCN1C(=O)NC1CCCCC1` [CBK289632] was 107.547; that for `CN1CCN(Cc2c(O)ccc3cc(-c4ccc(F)cc4)c(=O)oc23)CC1` [CBK267976] was 93.8662; that for `O=C(CSc1ccc(Cl)cc1)Nc1cccc2nsnc12` [CBK267936] was 107.322.

In the case of `COc1cc(CNc2cc(-c3ccc4c(c3)OCO4)ncn2)cc(OC)c1OC` [CBK037822], the “% of control remaining” value was 65.0211. The value for `COCCc1noc(CC2CCN(c3cc(C)ncc3C#N)CC2)n1` [CBK304092] was 59.4254. For `Cc1nn(C)cc1CN(C)S(=O)(=O)c1cccc([N+](=O)[O-])c1` [CBK265399] the value was 112.134. Regarding `CCCC(=O)N1CCC(c2cc(C(F)F)c3c(C)noc3n2)CC1` [CBK285304], the “% of control remaining” value is on record as 75.9396.

For the compound `COc1ccc(Oc2nccnc2N2CCN(Cc3ccc(C(F)(F)F)cc3)CC2)cc1OC` [CBK083044T], the “% of control remaining” value is on record as 77.4611. `CC(C)(C)n1ncc2c(=O)n(CC(=O)Nc3ccccc3)cnc21` [CBK287541]: the “% of control remaining” value turned out to be 79.4798. The value for `O=C(O)/C=C/c1cccc(-c2cn3ccnc3c(NCc3cccnc3)n2)c1` [CBK066283] was 130.216. For `COc1cccc(CN2CCN(C(=O)c3cccc(F)c3)CC2)c1OC` [CBK074527] the value was 78.3055; for `O=C1NC[C@@H](Cc2ccccc2)NC(=O)C2(C/C=C/COc3ccccc31)CCN(Cc1ncccc1F)CC2` [CBK292193], 94.5843; for `O=C(CSc1nc(-c2cccs2)cc(C(F)(F)F)n1)NN1CCOCC1` [CBK307375], 79.3733. The value for `CC(=O)Nc1ccc(NC(=O)CCn2c(-c3cccc(C)c3)n[nH]c2=S)cc1Cl` [CBK296656] was 67.1291; that for `Cn1ccc2ccc(C(=O)Nc3nccs3)cc21` [CBK287910] was 107.371. With `Cc1nc(COc2ccc(C(=O)N3CCCC(C(N)=O)C3)cc2)no1` (centres unmarked) [CBK305660], the “% of control remaining” value is 73.3559. For `C=CCN1C(=O)C2(CC(=O)N(Cc3ccccc3)C2=O)c2cc(OC)ccc21` (centres unmarked) [CBK075281] the value was 99.4713; for `CCN(Cc1cnc(C)s1)[C@H]1CCO[C@@H](c2ccccc2-c2ccc(OC)cc2)C1` [CBK285853], 65.3377. For `CC(=O)Nc1cccc(-n2nnnc2SCC2CCCN(C)C2)c1` (centres unmarked) [CBK305294] the value was 69.731.

As to `O=C(O)c1cc(Br)cc2c3c([nH]c12)CCCC3` [CBK100973], the “% of control remaining” value came to 85.3478. The value for `O=C(CN1C(=O)COc2ccc(Cl)cc21)Nc1ccc2[nH]c(=O)[nH]c2c1` [CBK268295] was 68.7386; that for `CCCc1c(C)nc2ccc(C)cc2c1SCC(=O)O` [CBK263537] was 114.889. For `CCOC(=O)n1c(=O)n2n(c1=O)CC=CC2` [CBK023102] the value was 70.6729; for `CC(C)(C)NC(=O)N1CCC(=O)N1` [CBK007341], 98.1016; for `CC(=O)NC[C@@H]1C=C(C)[C@H](CC(=O)Nc2ccccn2)C[C@H]1C(C)C` [CBK289209], 94.6384. The value for `CC1=NNC(=O)C1Cc1ccc(F)cc1` (centres unmarked) [CBK067755] was 66.227; that for `O=C1NC2(CCc3ccccc31)CCN(C(=O)c1ccncc1)C2` (centres unmarked) [CBK283336] was 86.0036; that for `Cn1nnc2cc(NCC3(CNC(=O)OC(C)(C)C)CC3)ccc21` [CBK304777] was 80.8336. Regarding `CCNS(=O)(=O)c1ccc2c(c1)N(Cc1n[nH]c(CC)n1)CC2` [CBK306434], the “% of control remaining” value is listed as 72.9812. `Nc1cc2cccnc2nc1-c1ccc(OC(F)(F)F)cc1` [CBK067616]: the “% of control remaining” value was 107.218.

In the case of `Nc1cc2cccnc2c(-c2ccc3c(c2)CCO3)n1` [CBK081173], the “% of control remaining” value is on record as 113.751. The value for `Cc1ccc(N(CC(=O)N/N=C2\C(=O)Nc3ccccc32)S(=O)(=O)c2ccccc2)cc1` [CBK262169] was 90.241.

Turning to `Nc1nc(NCCOc2ccccc2F)cc(C2CCOC2)n1` (centres unmarked) [CBK306559], the “% of control remaining” value was 64.0141. The value for `CS(=O)(=O)c1ccc(-c2ccc3c(c2)CN(C2CCN(C(=O)c4ccccc4)CC2)CCO3)cc1` [CBK169265] was 69.566. For `O=C(CSc1cnn[nH]1)Nc1ccccc1F` [CBK269903] the value was 57.8502; for `CCN(CC)CCCOC1(C)SC(NC2CCCCCC2)=NC1=O` (centres unmarked) [CBK113510], 49.4414. For `Cc1ccc(CNC(=O)c2ccc3c(c2)nc(N2CC[C@H](O)C2)n3C)s1` [CBK306837] the value was 58.3122; for `Fc1ccc(-c2cn3ccnc3c(NC3CC3)n2)cc1F` [CBK066692], 115.517.

Turning to `CC1CCN(C(=O)C[C@@H]2O[C@H](CNC(=O)C3CC3)[C@@H](O)[C@H]2O)CC1` [CBK288926], the “% of control remaining” value is on record as 76.5352.

The values above are taken from paper PMC12040169 (PLOS Biology, 2025).
